# Measured values from the supplement of paper PMC8728848.
# The list shows a part of the results.
# B1: CBM13 2a (Mycobacterium tuberculosum), P64849 (protein)
# chain: DGPVQLKSRLGDVCLDAPSGSWFSPLVINPCNGTDFQRWNLTDDRQVESVAFPGECVNIGNALWARLQPCVNWISQHWTVQPDGLVKSDLDACLTVLGGPDPGTWVSTRWCDPNAPDQQWDSVPLEHHHHHH
# Columns and labels:
# Assay in all cases: glycan array binding signal (z-score within array); higher = stronger binding
# Settings in all cases: glycan notation: IUPAC condensed, linker removed
# [1] = target: Neu5Ac(a2-3)GalNAc
# Procedure, shortened: (§1)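 The binding signal is a Z-score computed within each array and averaged over linkers. Arrays of the same protein sequence at different concentrations or buffers were also averaged together. Data originate from 3228 arrays in the Consortium for Functional Glycomics database, kept only where the protein sequence was available.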
# [2] = target: Neu5Ac(a2-3)GalNAc(b1-4)GlcNAc
# Procedure, shortened: as §1
# [3] = target: Neu5Ac(a2-3)[GalNAc(b1-4)]Gal(b1-4)Glc
# Procedure, shortened: as §1
# [4] = target: Neu5Ac(a2-3)[GalNAc(b1-4)]Gal(b1-4)GlcNAc
# Procedure, shortened: as §1
# [5] = target: Neu5Ac(a2-3)[GalNAc(b1-4)]Gal(b1-4)GlcNAc(b1-3)GalNAc
# Procedure, shortened: as §1
# [6] = target: Neu5Ac(a2-3)[Neu5Ac(a2-6)]GalNAc
# Procedure, shortened: as §1
# [7] = target: Neu5Ac(a2-6)Gal
# Procedure, shortened: as §1
# [8] = target: Neu5Ac(a2-6)Gal(b1-3)GlcNAc(b1-3)[Gal(b1-4)GlcNAc(b1-6)]Gal(b1-4)Glc
# Procedure, shortened: as §1
# [9] = target: Neu5Ac(a2-6)Gal(b1-4)Glc
# Procedure, shortened: as §1
# [10] = target: Neu5Ac(a2-6)Gal(b1-4)GlcNAc
# Procedure, shortened: as §1
# [11] = target: Neu5Ac(a2-6)Gal(b1-4)GlcNAc(b1-2)Man
# Procedure, shortened: as §1
# [12] = target: Neu5Ac(a2-6)Gal(b1-4)GlcNAc(b1-2)Man(a1-3)Man(b1-4)GlcNAc(b1-4)GlcNAc
# Procedure, shortened: as §1
# [13] = target: Neu5Ac(a2-6)Gal(b1-4)GlcNAc(b1-2)Man(a1-3)[Gal(b1-4)GlcNAc(b1-2)Man(a1-6)]Man(b1-4)GlcNAc(b1-4)GlcNAc
# Procedure, shortened: as §1
# [14] = target: Neu5Ac(a2-6)Gal(b1-4)GlcNAc(b1-2)Man(a1-3)[GlcNAc(b1-2)Man(a1-6)]Man(b1-4)GlcNAc(b1-4)GlcNAc
# Procedure, shortened: as §1
# [15] = target: Neu5Ac(a2-6)Gal(b1-4)GlcNAc(b1-2)Man(a1-3)[GlcNAc(b1-4)][Neu5Ac(a2-6)Gal(b1-4)GlcNAc(b1-2)Man(a1-6)]Man(b1-4)GlcNAc(b1-4)GlcNAc
# Procedure, shortened: as §1
# [16] = target: Neu5Ac(a2-6)Gal(b1-4)GlcNAc(b1-2)Man(a1-3)[Man(a1-6)]Man(b1-4)GlcNAc(b1-4)GlcNAc
# Procedure, shortened: as §1
# [17] = target: Neu5Ac(a2-6)Gal(b1-4)GlcNAc(b1-2)Man(a1-3)[Neu5Ac(a2-3)Gal(b1-4)GlcNAc(b1-2)Man(a1-6)]Man(b1-4)GlcNAc(b1-4)GlcNAc
# Procedure, shortened: as §1
# [18] = target: Neu5Ac(a2-6)Gal(b1-4)GlcNAc(b1-2)Man(a1-3)[Neu5Ac(a2-6)Gal(b1-4)GlcNAc(b1-2)Man(a1-6)]Man(b1-4)GlcNAc(b1-4)GlcNAc
# Procedure, shortened: as §1
# [19] = target: Neu5Ac(a2-6)Gal(b1-4)GlcNAc(b1-2)Man(a1-3)[Neu5Ac(a2-6)Gal(b1-4)GlcNAc(b1-2)Man(a1-6)]Man(b1-4)GlcNAc(b1-4)[Fuc(a1-6)]GlcNAc
# Procedure, shortened: as §1
# [20] = target: Neu5Ac(a2-6)Gal(b1-4)GlcNAc(b1-2)Man(a1-6)Man(b1-4)GlcNAc(b1-4)GlcNAc
# Procedure, shortened: as §1
# [21] = target: Neu5Ac(a2-6)Gal(b1-4)GlcNAc(b1-2)Man(a1-6)[Gal(b1-4)GlcNAc(b1-2)Man(a1-3)]Man(b1-4)GlcNAc(b1-4)GlcNAc
# Procedure, shortened: as §1
# [22] = target: Neu5Ac(a2-6)Gal(b1-4)GlcNAc(b1-2)Man(a1-6)[GlcNAc(b1-2)Man(a1-3)]Man(b1-4)GlcNAc(b1-4)GlcNAc
# Procedure, shortened: as §1
# [23] = target: Neu5Ac(a2-6)Gal(b1-4)GlcNAc(b1-2)Man(a1-6)[Man(a1-3)]Man(b1-4)GlcNAc(b1-4)GlcNAc
# Procedure, shortened: as §1
# [24] = target: Neu5Ac(a2-6)Gal(b1-4)GlcNAc(b1-2)[Neu5Ac(a2-6)Gal(b1-4)GlcNAc(b1-4)]Man(a1-3)[GlcNAc(b1-4)][Neu5Ac(a2-6)Gal(b1-4)GlcNAc(b1-2)[Neu5Ac(a2-6)Gal(b1-4)GlcNAc(b1-6)]Man(a1-6)]Man(b1-4)GlcNAc(b1-4)GlcNAc
# Procedure, shortened: as §1
# [25] = target: Neu5Ac(a2-6)Gal(b1-4)GlcNAc(b1-2)[Neu5Ac(a2-6)Gal(b1-4)GlcNAc(b1-4)]Man(a1-3)[GlcNAc(b1-4)][Neu5Ac(a2-6)Gal(b1-4)GlcNAc(b1-4)Man(a1-6)]Man(b1-4)GlcNAc(b1-4)GlcNAc
# Procedure, shortened: as §1
# [26] = target: Neu5Ac(a2-6)Gal(b1-4)GlcNAc(b1-2)[Neu5Ac(a2-6)Gal(b1-4)GlcNAc(b1-6)]Man(a1-6)[Neu5Ac(a2-6)Gal(b1-4)GlcNAc(b1-2)Man(a1-3)][GlcNAc(b1-4)]Man(b1-4)GlcNAc(b1-4)GlcNAc
# Procedure, shortened: as §1
# [27] = target: Neu5Ac(a2-6)Gal(b1-4)GlcNAc(b1-3)Gal(b1-3)GlcNAc
# Procedure, shortened: as §1
# [28] = target: Neu5Ac(a2-6)Gal(b1-4)GlcNAc(b1-3)Gal(b1-4)GlcNAc
# Procedure, shortened: as §1
# [29] = target: Neu5Ac(a2-6)Gal(b1-4)GlcNAc(b1-3)Gal(b1-4)GlcNAc(b1-2)Man(a1-3)[Neu5Ac(a2-6)Gal(b1-4)GlcNAc(b1-3)Gal(b1-4)GlcNAc(b1-2)Man(a1-6)]GalNAc
# Procedure, shortened: as §1
# [30] = target: Neu5Ac(a2-6)Gal(b1-4)GlcNAc(b1-3)Gal(b1-4)GlcNAc(b1-3)Gal(b1-4)GlcNAc
# Procedure, shortened: as §1
# [31] = target: Neu5Ac(a2-6)Gal(b1-4)GlcNAc(b1-3)Gal(b1-4)GlcNAc(b1-3)Gal(b1-4)GlcNAc(b1-2)Man(a1-3)[Neu5Ac(a2-6)Gal(b1-4)GlcNAc(b1-3)Gal(b1-4)GlcNAc(b1-3)Gal(b1-4)GlcNAc(b1-2)Man(a1-6)]GalNAc
# Procedure, shortened: as §1
# [32] = target: Neu5Ac(a2-6)Gal(b1-4)GlcNAc(b1-3)Gal(b1-4)GlcNAc(b1-3)GalNAc
# Procedure, shortened: as §1
# [33] = target: Neu5Ac(a2-6)Gal(b1-4)GlcNAc(b1-3)Gal(b1-4)GlcNAc(b1-3)[Neu5Ac(a2-6)Gal(b1-4)GlcNAc(b1-3)Gal(b1-4)GlcNAc(b1-6)]GalNAc
# Procedure, shortened: as §1
# [34] = target: Neu5Ac(a2-6)Gal(b1-4)GlcNAc(b1-3)Gal(b1-4)GlcNAc(b1-6)[Gal(b1-3)]GalNAc
# Procedure, shortened: as §1
# [35] = target: Neu5Ac(a2-6)Gal(b1-4)GlcNAc(b1-3)Gal(b1-4)[Fuc(a1-3)]GlcNAc(b1-3)Gal(b1-4)[Fuc(a1-3)]GlcNAc
# Procedure, shortened: as §1
# [36] = target: Neu5Ac(a2-6)Gal(b1-4)GlcNAc(b1-3)GalNAc
# Procedure, shortened: as §1
# [37] = target: Neu5Ac(a2-6)Gal(b1-4)GlcNAc(b1-3)[Neu5Ac(a2-6)Gal(b1-4)GlcNAc(b1-6)]GalNAc
# Procedure, shortened: as §1
# [38] = target: Neu5Ac(a2-6)Gal(b1-4)GlcNAc(b1-6)GalNAc
# Procedure, shortened: as §1
# [39] = target: Neu5Ac(a2-6)Gal(b1-4)GlcNAc(b1-6)[Gal(b1-3)GlcNAc(b1-3)]Gal(b1-4)Glc
# Procedure, shortened: as §1
# [40] = target: Neu5Ac(a2-6)Gal(b1-4)GlcNAc(b1-6)[Gal(b1-3)]GalNAc
# Procedure, shortened: as §1
# [41] = target: Neu5Ac(a2-6)Gal(b1-4)GlcNAc6S
# Procedure, shortened: as §1
# [42] = target: Neu5Ac(a2-6)GalNAc
# Procedure, shortened: as §1
# [43] = target: Neu5Ac(a2-6)GalNAc(b1-4)GlcNAc
# Procedure, shortened: as §1
# [44] = target: Neu5Ac(a2-6)GalNAc(b1-4)GlcNAc6S
# Procedure, shortened: as §1
# [45] = target: Neu5Ac(a2-6)GlcNAc(b1-4)GlcNAc
# Procedure, shortened: as §1
binder,measurement,setting,value
B1,glycan array binding signal (z-score),[1],-0.365
same,glycan array binding signal (z-score),[2],-0.302
same,glycan array binding signal (z-score),[3],-0.042
same,glycan array binding signal (z-score),[4],-0.18
same,glycan array binding signal (z-score),[5],4.49
same,glycan array binding signal (z-score),[6],-0.233
same,glycan array binding signal (z-score),[7],-0.219
same,glycan array binding signal (z-score),[8],-0.273
same,glycan array binding signal (z-score),[9],-0.207
same,glycan array binding signal (z-score),[10],-0.051
same,glycan array binding signal (z-score),[11],-0.293
same,glycan array binding signal (z-score),[12],-0.031
same,glycan array binding signal (z-score),[13],-0.051
same,glycan array binding signal (z-score),[14],0.122
same,glycan array binding signal (z-score),[15],-0.049
same,glycan array binding signal (z-score),[16],-0.039
same,glycan array binding signal (z-score),[17],-0.182
same,glycan array binding signal (z-score),[18],-0.069
same,glycan array binding signal (z-score),[19],-0.14
same,glycan array binding signal (z-score),[20],-0.157
same,glycan array binding signal (z-score),[21],-0.18
same,glycan array binding signal (z-score),[22],-0.189
same,glycan array binding signal (z-score),[23],-0.19
same,glycan array binding signal (z-score),[24],0.194
same,glycan array binding signal (z-score),[25],0.096
same,glycan array binding signal (z-score),[26],-0.088
same,glycan array binding signal (z-score),[27],-0.366
same,glycan array binding signal (z-score),[28],-0.136
same,glycan array binding signal (z-score),[29],0.542
same,glycan array binding signal (z-score),[30],-0.13
same,glycan array binding signal (z-score),[31],4.67
same,glycan array binding signal (z-score),[32],0.076
same,glycan array binding signal (z-score),[33],8.64
same,glycan array binding signal (z-score),[34],2.09
same,glycan array binding signal (z-score),[35],0.002
same,glycan array binding signal (z-score),[36],-0.215
same,glycan array binding signal (z-score),[37],0.141
same,glycan array binding signal (z-score),[38],-0.003
same,glycan array binding signal (z-score),[39],-0.077
same,glycan array binding signal (z-score),[40],-0.121
same,glycan array binding signal (z-score),[41],0.079
same,glycan array binding signal (z-score),[42],-0.346
same,glycan array binding signal (z-score),[43],-0.192
same,glycan array binding signal (z-score),[44],0.025
same,glycan array binding signal (z-score),[45],-0.221
